Assay results: the supplement of paper PMC11876631
Positions count from the first letter of the chain named. Names may count otherwise. ± gives the standard deviation of the averaged measurements. Laboratory Escherichia coli strains with one amino-acid change in an essential protein, pooled on minimal glucose agar with carbenicillin or gentamicin at twice the control MIC (plus kanamycin and chloramphenicol for the plasmids), 48 h. Fold change of barcode share against drug-free plates; higher = less susceptible. Active = above 20 in both replicates (the paper's putatively resistant). '<' = one read or none on drug, '>' = one read or none on a drug-free plate. Shares are relative, so most strains fall below 1 when a few take over. Listed are strains with at least 15 reads on both drug-free plates, and hits; most hits rest on fewer reference reads. Replicate rank correlation about 0.5. Edits are read from barcodes.

B1: pssA I370A (protein)
chain: MLSKFKRNKHQQHLAQLPKISQSVDDVDFFYAPADFRETLLEKIASAKQRICIVALYLEQDDGGKGILNALYEAKRQRPELDVRVLVDWHRAQRGRIGAAASNTNADWYCRMAQENPGVDVPVYGVPINTREALGVLHFKGFIIDDSVLYSGASLNDVYLHQHDKYRYDRYHLIRNRKMSDIMFEWVTQNIMNGRGVNRLDDVNRPKSPEIKNDIRLFRQELRDAAYHFQGDADNDQLSVTPLVGLGKSSLLNKTIFHLMPCAEQKLTICTPYFNLPAILVRNIIQLLREGKKVEIIVGDKTANDFYIPEDEPFKIIGALPYLYEINLRRFLSRLQYYVNTDQLVVRLWKDDDNTYHLKGMWVDDKWMLATGNNLNPRAWRLDLENAILIHDPQLELAPQREKELELIREHTTIVKHYRDLQSIADYPVKVRKLIRRLRRIRIDRLISRIL
B2: purD M336A (protein)
chain: MKVLVIGNGGREHALAWKAAQSPLVETVFVAPGNAGTALEPALQNVAIGVTDIPALLDFAQNEKIDLTIVGPEAPLVKGVVDTFRAAGLKIFGPTAGAAQLEGSKAFTKDFLARHKIPTAEYQNFTEVEPALAYLREKGAPIVIKADGLAAGKGVIVAMTLEEAEAAVHDMLAGNAFGDAGHRIVIEEFLDGEEASFIVMVDGEHVLPMATSQDHKRVGDKDTGPNTGGMGAYSPAPVVTDDVHQRTMERIIWPTVKGMAAEGNTYTGFLYAGLMIDKQGNPKVIEFNCRFGDPETQPIMLRMKSDLVELCLAACESKLDEKTSEWDERASLGVVAAAGGYPGDYRTGDVIHGLPLEEVAGGKVFHAGTKLADDEQVVTNGGRVLCVTALGHTVAEAQKRAYALMTDIHWDDCFCRKDIGWRAIEREQN
B3: purD M336W (protein)
chain: B2 chain with A336W
B4: purD M336Q (protein)
chain: B2 chain with A336Q
B5: purH V123A (protein)
chain: MQQRRPVRRALLSVSDKAGIVEFAQALSARGVELLSTGGTARLLAEKGLPVTEVSDYTGFPEMMDGRVKTLHPKVHGGILGRRGQDDAIMEEHQIQPIDMVVVNLYPFAQTVAREGCSLEDAAENIDIGGPTMVRSAAKNHKDVAIVVKSSDYDAIIKEMDDNEGSLTLATRFDLAIKAFEHTAAYDSMIANYFGSMVPAYHGESKEAAGRFPRTLNLNFIKKLDMRYGENSHQQAAFYIEENVKEASVATATQVQGKALSYNNIADTDAALECVKEFAEPACVIVKHANPCGVAIGNSILDAYDRAYKTDPTSAFGGIIAFNRELDAETAQAIISRQFVEVIIAPSASEEALKITAAKQNVRVLTCGQWGERVPGLDFKRVNGGLLVQDRDLGMVGAEELRVVTKRQPSEQELRDALFCWKVAKFVKSNAIVYAKNNMTIGIGAGQMSRVYSAKIAGIKAADEGLEVKGSSMASDAFFPFRDGIDAAAAAGVTCVIQPGGSIRDDEVIAAADEHGIAMLFTDMRHFRH
B6: purH V123Q (protein)
chain: B5 chain with A123Q
B7: purH V123D (protein)
chain: B5 chain with A123D
B8: purH V123P (protein)
chain: B5 chain with A123P
B9: pyrD V315A (protein)
chain: MYYPFVRKALFQLDPERAHEFTFQQLRRITGTPFEALVRQKVPAKPVNCMGLTFKNPLGLAAGLDKDGECIDALGAMGFGSIEIGTVTPRPQPGNDKPRLFRLVDAEGLINRMGFNNLGVDNLVENVKKAHYDGVLGINIGKNKDTPVEQGKDDYLICMEKIYAYAGYIAINISSPNTPGLRTLQYGEALDDLLTAIKNKQNDLQAMHHKYVPIAVKIAPDLSEEELIQVADSLVRHNIDGVIATNTTLDRSLVQGMKNCDQTGGLSGRPLQLKSTEIIRRLSLELNGRLPIIGVGGIDSVIAAREKIAAGASLAQIYSGFIFKGPPLIKEIVTHI
B10: pyrD I332A (protein)
chain: B9 chain with A315V, I332A
B11: pyrE L122Q (protein)
chain: MKPYQRQFIEFALSKQVLKFGEFTLKSGRKSPYFFNAGLFNTGRDLALLGRFYAEALVDSGIEFDLLFGPAYKGIPIATTTAVALAEHHDLDLPYCFNRKEAKDHGEGGNLVGSALQGRVMQVDDVITAGTAIRESMEIIQANGATLAGVLISLDRQERGRGEISAIQEVERDYNCKVISIITLKDLIAYLEEKPEMAEHLAAVKAYREEFGV
B12: pyrE V123A (protein)
chain: B11 chain with Q122L, V123A

Target: Escherichia coli (laboratory strain)
Experiment: barcode share on antibiotic plates over drug-free plates; higher = less susceptible
Conditions: antibiotic: gentamicin; 2× MIC (MIC 0.45 µg/mL)
Protocol: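 A pool of E. coli strains, each edited to carry one amino-acid change in an essential protein, was grown for 48 h on minimal glucose agar with or without antibiotic; strain barcodes were sequenced; mean of two replicates.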

Protein | fold change of barcode share
B1 | 0.0271 ± 0.018
B2 | 0.0357 ± 0.046
B3 | 0.00529 ± 0.0045
B4 | 0.00787 ± 0.0068
B5 | 0.0106 ± 0.012
B6 | 0.01941 ± 3.3e-05
B7 | 0.00773 ± 0.0072
B8 | 0.00364 ± 0.00067
B9 | < 0.0188
B10 | < 0.0192
B11 | < 0.0152
B12 | < 0.0202
